Among the data in the supplement of paper PMC4604168 (melanoma cell lines) are cell count values, retold here.

Molecules are shown by their SMILES. The list shows a part of the results. Single values are uncertain, as repeats are few or missing.
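Also: cell number obtained by counting DAPI-stained nuclei in high-throughput microscope images with image analysis software, screen run in 1,536-well plates.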

This assay relates to UACC257. Description: cell count relative to DMSO control; melanoma cells; higher = more viable cells. As to conditions: library dose: low library concentration; 72 h.
Compound `Cc1cc(Nc2cc(N3CCN(C)CC3)nc(Sc3ccc(NC(=O)C4CC4)cc3)n2)n[nH]1` [Tozasertib] + O=C(Oc1ccc([N+](=O)[O-])cc1)N1CCC(C(O)(c2ccc3c(c2)OCO3)c2ccc3c(c2)OCO3)CC1 [JZL184] (first compound 0.006 µM, partner dose 1 µM) displayed a cell count of 96.7%.
On to `Oc1cc(-c2nc(-c3ccccc3)[nH]c2-c2ccncc2)ccc1Cl` + C/C(O)=C(\C#N)C(=O)Nc1cc(Br)ccc1Br [LFM-A13] (first compound 0.2 µM, partner dose 2 µM), for which the cell count was 98.4%.
As for `O=C(O)C(=O)Nc1sc2c(c1C(=O)O)CCNC2` + O=C(Oc1ccc([N+](=O)[O-])cc1)N1CCC(C(O)(c2ccc3c(c2)OCO3)c2ccc3c(c2)OCO3)CC1 [JZL184] (first compound 1.66667 µM, partner dose 1 µM), the cell count is 89%.
The value for `Clc1ccc(Nc2nnc(Cc3ccncc3)c3ccccc23)cc1` [vatalanib] + O=C(Oc1ccc([N+](=O)[O-])cc1)N1CCC(C(O)(c2ccc3c(c2)OCO3)c2ccc3c(c2)OCO3)CC1 [JZL184] (first compound 2 µM, partner dose 1 µM) was 80%; that for `COc1cc2ncnc(Nc3ccc(Oc4ccccc4)cc3)c2cc1OC` + O=C(Oc1ccc([N+](=O)[O-])cc1)N1CCC(C(O)(c2ccc3c(c2)OCO3)c2ccc3c(c2)OCO3)CC1 [JZL184] (first compound 2 µM, partner dose 1 µM) was 101%; that for `CC(C)C[C@H](NC(=O)[C@H](Cc1ccccc1)NC(=O)c1cnccn1)B(O)O` [Bortezomib] + O=C(Oc1ccc([N+](=O)[O-])cc1)N1CCC(C(O)(c2ccc3c(c2)OCO3)c2ccc3c(c2)OCO3)CC1 [JZL184] (first compound 0.001 µM, partner dose 1 µM) was 40.4%.
Regarding `c1cc(-c2cnn3cc(-c4ccc(OCCN5CCCCC5)cc4)cnc23)ccn1` [Dorsomorphin] + O=C(Oc1ccc([N+](=O)[O-])cc1)N1CCC(C(O)(c2ccc3c(c2)OCO3)c2ccc3c(c2)OCO3)CC1 [JZL184] (first compound 0.4 µM, partner dose 1 µM), the cell count came out at 116%.
In the case of `Oc1cc(-c2nc(-c3ccccc3)[nH]c2-c2ccncc2)ccc1Cl` + O=C(Oc1ccc([N+](=O)[O-])cc1)N1CCC(C(O)(c2ccc3c(c2)OCO3)c2ccc3c(c2)OCO3)CC1 [JZL184] (first compound 0.2 µM, partner dose 1 µM), the cell count was found to be 89.9%.
For the compound `Nc1ccn([C@@H]2O[C@H](CO)[C@@H](O)C2(F)F)c(=O)n1` [gemcitabine] + C/C(O)=C(\C#N)C(=O)Nc1cc(Br)ccc1Br [LFM-A13] (first compound 0.0004 µM, partner dose 2 µM), the cell count is 119%.
Regarding `CC(C)C[C@H](NC(=O)[C@H](Cc1ccccc1)NC(=O)c1cnccn1)B(O)O` [Bortezomib] + C/C(O)=C(\C#N)C(=O)Nc1cc(Br)ccc1Br [LFM-A13] (first compound 0.001 µM, partner dose 2 µM), the cell count worked out at 70.5%.
The value for `CO[C@H]1C[C@@H]2CC[C@@H](C)[C@@](O)(O2)C(=O)C(=O)N2CCCC[C@H]2C(=O)O[C@H]([C@H](C)C[C@@H]2CC[C@@H](OCCO)[C@H](OC)C2)CC(=O)[C@H](C)/C=C(\C)[C@@H](O)[C@@H](OC)C(=O)[C@H](C)C[C@H](C)/C=C/C=C/C=C/1C` [everolimus] + Cc1cc(SCc2sc(-c3ccc(C(F)(F)F)c(F)c3)nc2C)ccc1OCC(=O)O [GW0742] (first compound 0.02 µM, partner dose 2 µM) was 106%.
The value for `Nc1ccn([C@@H]2O[C@H](CO)[C@@H](O)C2(F)F)c(=O)n1` [gemcitabine] + O=C(Oc1ccc([N+](=O)[O-])cc1)N1CCC(C(O)(c2ccc3c(c2)OCO3)c2ccc3c(c2)OCO3)CC1 [JZL184] (first compound 0.0004 µM, partner dose 1 µM) was 93.4%; that for `Cc1nc(Nc2ncc(C(=O)Nc3c(C)cccc3Cl)s2)cc(N2CCN(CCO)CC2)n1` [dasatanib] + Cc1cc(SCc2sc(-c3ccc(C(F)(F)F)c(F)c3)nc2C)ccc1OCC(=O)O [GW0742] (first compound 0.004 µM, partner dose 2 µM) was 64.6%; that for `COCC[n+]1c2c(n(Cc3cnccn3)c1C)C(=O)c1ccccc1C2=O` + Cc1cc(SCc2sc(-c3ccc(C(F)(F)F)c(F)c3)nc2C)ccc1OCC(=O)O [GW0742] (first compound 0.0004 µM, partner dose 2 µM) was 107%.
For `Cc1cc(Nc2cc(N3CCN(C)CC3)nc(Sc3ccc(NC(=O)C4CC4)cc3)n2)n[nH]1` [Tozasertib] + C/C(O)=C(\C#N)C(=O)Nc1cc(Br)ccc1Br [LFM-A13] (first compound 0.006 µM, partner dose 2 µM), the cell count came out at 79.6%.
With `COc1ccc(COc2ccc(Cc3cnc(N)nc3N)cc2OC)cc1` + C/C(O)=C(\C#N)C(=O)Nc1cc(Br)ccc1Br [LFM-A13] (first compound 1 µM, partner dose 2 µM), the cell count was determined as 94.6%.
The value for `O=C(O)c1ccc2c(c1)nc(Nc1cccc(Cl)c1)c1ccncc12` + O=C(Oc1ccc([N+](=O)[O-])cc1)N1CCC(C(O)(c2ccc3c(c2)OCO3)c2ccc3c(c2)OCO3)CC1 [JZL184] (first compound 0.4 µM, partner dose 1 µM) was 115%; that for `COc1ccc(COc2ccc(Cc3cnc(N)nc3N)cc2OC)cc1` + Cc1cc(SCc2sc(-c3ccc(C(F)(F)F)c(F)c3)nc2C)ccc1OCC(=O)O [GW0742] (first compound 1 µM, partner dose 2 µM) was 86.9%.
